Results as given in PubChem BioAssay AID624296 (National Center for Advancing Translational Sciences (NCATS), 2012).
Out of some 350,000 compounds screened, about 9,900 (2.8%) were called active. Inconclusive means that the source gave no clear call. Such entries were picked first, then a sample of the others. Calls come from the whole dose curve; as a rule, active = well fitted activation curve with a large enough effect; inconclusive = small, poorly fitted or top-dose-only effect; inactive = no such curve, though single readings can be large or run the other way. Potencies of inconclusive entries are left out as doubtful fits.

Assay: A quantitative high throughput screen for small molecules that induce DNA re-replication in MCF 10a normal breast cells. For activity, positive = re-replication: % of control where 0% means no effect. Note: nearly all actives have a fitted effect of over 50% in size.
Conditions: MCF 10A DNA re-replication, Hoechst nuclear intensity, 48 h; activity, positive = re-replication: at 46.1 µM (top of the series)
Potency is the fitted concentration of half-maximal effect; tags give direction and shape of the fitted curve.

Row | Compound | Potency | activity, positive = re-replication
1 | Cc1ccc2nc(-c3ccc(NS(=O)(=O)c4ccccc4)cc3)sc2c1 | inconclusive [activator, single point] | 
2 | CC(NC(=O)Cn1ccsc1=N)C12CC3CC(CC(C3)C1)C2 (stereo not drawn) |  | inactive: 0.0534%
3 | COc1cc(/C=C2/CCC/C(=C\c3cc(O)c(OC)c(Cl)c3)C2=O)cc(Cl)c1O | active: 2.06 µM | 
4 | CC1C(=O)C(C)(C)C(=O)OC1c1ccccc1 (stereo not drawn) | inconclusive [activator, partial curve, poor fit] | 
5 | CCC1CCCCN1S(=O)(=O)c1ccc(NC(=O)c2cccs2)cc1 (stereo not drawn) | inconclusive [activator, single point] | 
6 | O=C(Nc1ccc2c(c1)N(Cc1ccccc1)C(=O)c1ccccc1S2)NC1CC1 | inconclusive [activator, partial curve, poor fit] | 
7 | COc1cc([C@@H]2OC[C@@H]3[C@H]2CO[C@@H]3c2ccc3c(c2)OCO3)ccc1O | inconclusive [activator, full curve, poor fit] | 
8 | Cc1cccc2sc(N(CCCN(C)C)C(=O)c3ccc4ncsc4c3)nc12 | inconclusive [activator, partial curve, poor fit] | 
9 | COc1cccc(CN(C)C(=O)c2cc(S(=O)(=O)N3CCCC3)ccc2C)c1OC |  | inactive: 14.4%
10 | Cc1ccc(-c2cc(C(=O)Nc3cccnc3)c3ccccc3n2)s1 | inconclusive [activator, partial curve] | 
11 | COc1ccc(N2CCN(C(=O)COC(=O)COc3cccc(C(F)(F)F)c3)CC2)cc1 |  | inactive: 5.28%
12 | COCCCN1C(=O)c2[nH]nc(-c3ccccc3O)c2C1c1ccc(Cl)cc1 (stereo not drawn) | inconclusive [activator, single point] | 
13 | CCCCCCCCN1[C@@H](CC(=O)OCC)c2cc(C(F)(F)F)ccc2S1(=O)=O | inconclusive [activator, full curve, poor fit] | 
14 | CC(C)(C)c1ccc(S(=O)(=O)N2CC(C(=O)O)Oc3ccc(Cl)cc32)cc1 (stereo not drawn) | inconclusive [activator, partial curve, poor fit] | 
15 | COc1cccc2sc3ccc(NCCC4CCCN4C)cc3c(=O)c12 (stereo not drawn) |  | inactive: -27%
16 | COc1ccc(-c2oc3cc(O)c(OC)c(O)c3c(=O)c2OC)cc1O | inconclusive [activator, full curve] | 
17 | CC1(c2nnc(-c3ccc(Cl)cc3)o2)CC(c2ccc(Cl)cc2)=NO1 (stereo not drawn) | inconclusive [activator, full curve, poor fit] | 
18 | CC(=O)Nc1ccc(NC(=O)CCc2nc3ccccc3c(=O)[nH]2)cc1 |  | inactive: -3.8%
19 | CC(C)Cc1nnc(NC(=O)c2ccc(N3CCCC3=O)cc2)s1 |  | inactive: 17.2%
20 | C=CCc1ccccc1OCC(O)CN1C(=O)c2ccccc2C1=O (stereo not drawn) | inconclusive [activator, single point] | 
21 | Cc1ccc(NC(=S)N(CCN(C)C)Cc2cc3cccc(C)c3[nH]c2=O)cc1 | inconclusive [activator, full curve, poor fit] | 
22 | O=C(O)C1Nc2c(O)cc(Cl)c([N+](=O)[O-])c2C2C=CCC12 (stereo not drawn) |  | inactive: -2.86%
23 | O=c1cc(CNC2CCCCC2)c2ccccc2[nH]1 |  | inactive: 1.23%

Row | Compound | Potency | activity, positive = re-replication
24 | COc1ccccc1N1CCN(C(=O)c2cc(-c3ccc(C)cc3)on2)CC1 | inconclusive [activator, single point] | 
25 | COc1cc(CNc2ccc(N3CCN(C(C)=O)CC3)cc2)ccc1OCc1ccc(F)cc1 | active: 10.3 µM | 
26 | COCCCNCCOCCOc1ccc(C)cc1Br |  | inactive: 0.208%
27 | CC(=O)N/C(=C\c1ccccc1)C(=O)OCc1cccc(S(=O)(=O)N(C)C)c1 |  | inactive: -0.173%
28 | COC(=O)c1ccccc1NC(=O)c1ccc(COc2ccc3c(c2)CCC3)cc1 | inconclusive [activator, single point] | 
29 | Cc1noc(C)c1S(=O)(=O)N(C)C[C@H]1Oc2ccc(NC(=O)NC3CCCCC3)cc2C(=O)N([C@H](C)CO)C[C@@H]1C | inconclusive [activator, single point] | 
30 | O=C(Nc1cccc(S(=O)(=O)Nc2ccc(Cl)cc2)c1)c1cc2c(s1)CCCC2 | inconclusive [activator, partial curve, poor fit] | 
31 | O=C(O)c1ccc(NC2=C(Cl)C(=O)c3ccccc3C2=O)cc1 | inconclusive [activator, full curve, poor fit] | 
32 | Cc1ccnc(Sc2ccc([N+](=O)[O-])cn2)n1 |  | inactive: -4.08%
33 | CN(C)CCCNCC(=O)c1c(-c2ccccc2)n(C)c2ccccc12 | inconclusive [activator, single point] | 
34 | CC1(C)O[C@@H]2[C@H](O1)[C@@H](COS(=O)(=O)O)O[C@H]2n1cnc2c(=O)[nH]cnc21 | inconclusive [activator, full curve, poor fit] | 
35 | CNS(=O)(=O)c1cccc(C(=O)NNC(=O)c2ccc(COc3ccccc3)cc2)c1 |  | inactive: -1.75%
36 | COc1ccc2[nH]c3c(N4CCc5ccccc5C4)ncnc3c2c1 | active: 3.66 µM | 
37 | Cc1cc(C)c(C#N)c(SCC(=O)Nc2nnc(-c3ccccc3)s2)n1 | active: 10.3 µM | 
38 | CCC(C(=O)N1CCN(c2ccccc2OC)CC1)c1ccccc1 (stereo not drawn) | inconclusive [activator, single point] | 
39 | Cc1cc(Sc2ncnc(N)c2[N+](=O)[O-])ncn1 | active: 2.91 µM | 
40 | COc1cccc(/C=C2/SC(=S)N(CCC(=O)N3CCOCC3)C2=O)c1 | inconclusive [activator, partial curve, poor fit] | 
41 | COc1ccc(COC(=O)C2CCN(C(=O)c3ccc(Cl)cc3)CC2)cc1F | active: 14.6 µM | 
42 | CC(C)CNC(=O)CN(C1CCCCC1)S(C)(=O)=O | inconclusive [activator, partial curve, poor fit] | 
43 | O=C(CNC(=O)c1ccco1)OCc1ccc(C(=O)Oc2ccccc2)cc1 | inconclusive [activator, single point] | 
44 | O=C(O)c1ccc2c(c1)C(=O)N(C(Cc1ccccc1)C(=O)O)C2=O (stereo not drawn) | inconclusive [activator, partial curve, poor fit] | 
45 | O=C(CN1C(=O)S/C(=C\c2ccc(O)cc2)C1=O)c1ccccc1 | inconclusive [activator, single point] | 
46 | C=CS(=O)(=O)N(Cc1ccccc1Br)[C@H](CO)CC(C)C |  | inactive: 15.5%

Row | Compound | Potency | activity, positive = re-replication
47 | CC1CCCN(C2=C(NS(=O)(=O)c3ccc(Cl)cc3)C(=O)c3ccccc3C2=O)C1 (stereo not drawn) | inconclusive [activator, full curve, poor fit] | 
48 | O=C(C[n+]1ccccc1)Nc1ccccc1Br |  | inactive: 5.21%
49 | CCCN(C(=O)COc1ccc(C(C)=O)cc1OC)C1CCS(=O)(=O)C1 (stereo not drawn) |  | inactive: -1.22%
50 | COc1ccc2c(c1)c(=Cc1ccc(N(C)C)cc1)c1cc(-c3ccccc3)[n+](C)n12 |  | inactive: -16.6%
51 | Cc1cc(C)c2cc(CN(CCO)C(=O)NC3CCCCC3)c(=O)[nH]c2c1 |  | inactive: 12%
52 | COc1ccc(S(=O)(=O)N(C)c2ccc(C(=O)N3CCCC3)cc2)cc1 | inconclusive [activator, full curve, poor fit] | 
53 | O=C(CN1CC(=O)Oc2ccccc21)OCC(=O)c1cccc(Br)c1 | inconclusive [activator, single point] | 
54 | COC(=O)CNC(=O)CN1c2cccc3cccc(c23)S1(=O)=O | inconclusive [activator, single point] | 
55 | Cc1ccc(-c2csc(NC(=O)c3cccc(C)c3)c2C(=O)O)cc1 | inconclusive [activator, partial curve, poor fit] | 
56 | COc1ccc(C(=O)/C(Br)=C/C(=O)O)cc1 | active: 21.1 µM | 
57 | CN(Cc1ccccc1F)C(=O)C(Cc1ccccc1)NC(=O)c1ccccc1 (stereo not drawn) | inconclusive [activator, partial curve, poor fit] | 
58 | CCOc1ccccc1/C=C/c1onc(C)c1S(=O)(=O)N1CCC(C(=O)NC(C)C)CC1 |  | inactive: 15.1%
59 | Cn1c(Sc2ccccc2Cl)c(C=O)c2ccccc21 | inconclusive [activator, single point] | 
60 | COCCCNc1nc2c(-c3ccc(C)cc3)nnn2c2ccccc12 | inconclusive [activator, full curve, poor fit] | 
61 | CC(C)n1cc(/C=N\NC(=O)c2cc3c(ccc4ccccc43)o2)c2ccccc21 | inconclusive [activator, full curve, poor fit] | 
62 | O=C(CNC(=O)c1ccco1)NCC(=O)OCc1ccccc1Cl | inconclusive [activator, single point] | 
63 | O=C(Nc1ccc(Cl)cn1)c1ccc(COc2ccccc2Br)o1 | inconclusive [activator, single point] | 
64 | O=C(O)c1ccccc1SCC(=O)N1CCc2ccccc21 | active: 16.4 µM | 
65 | O=C(NCc1cccs1)C1CC(c2ccc(F)cc2)=NO1 (stereo not drawn) | inconclusive [activator, partial curve, poor fit] | 
66 | CCS(=O)(=O)c1ncc(Cl)c(C(=O)Nc2ccc(S(=O)(=O)N3CCCC(C)C3)cc2)n1 (stereo not drawn) | active: 2.59 µM | 
67 | O=C(OCC(=O)N1CCN(C(=O)c2ccco2)CC1)c1cc(-c2ccccc2)nc2ccccc12 | inconclusive [activator, partial curve, poor fit] | 
68 | Cc1cc(N2CCN(Cc3cn(C)nc3-c3ccccc3F)CC2)cc(C)n1 | active: 16.4 µM | 
